# Measurements from the supplement of paper PMC8728848.
# The list shows a part of the results.
# Assays:
# Test in all cases: glycan array binding signal (z-score within array); higher = stronger binding
# Settings in all cases: glycan notation: IUPAC condensed, linker removed
# [1] = biological target: GlcNAc(b1-3)Gal(b1-4)GlcNAc(b1-3)Gal(b1-4)GlcNAc(b1-3)Gal(b1-4)GlcNAc(b1-3)Gal(b1-4)GlcNAc(b1-2)[GlcNAc(b1-3)Gal(b1-4)GlcNAc(b1-3)Gal(b1-4)GlcNAc(b1-3)Gal(b1-4)GlcNAc(b1-3)Gal(b1-4)GlcNAc(b1-6)]Man(a1-6)[GlcNAc(b1-3)Gal(b1-4)GlcNAc(b1-3)Gal(b1-4)GlcNAc(b1-3)Gal(b1-4)GlcNAc(b1-3)Gal(b1-4)GlcNAc(b1-2)Man(a1-3)]Man(b1-4)GlcNAc(b1-4)[Fuc(a1-6)]GlcNAc
# Procedure, shortened: (§1)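 Columns mapping to the same glycan were averaged after glycan names were converted to IUPAC-condensed notation. The data come from 3228 arrays in the Consortium for Functional Glycomics database, limited to those with an available protein sequence. Binding is reported as a within-array Z-score averaged across arrays of one protein sequence and across linkers.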
# [2] = biological target: GlcNAc(b1-3)Gal(b1-4)GlcNAc(b1-3)Gal(b1-4)GlcNAc(b1-3)GalNAc
# Procedure, shortened: as §1
# [3] = biological target: GlcNAc(b1-3)Gal(b1-4)GlcNAc(b1-3)GalNAc
# Procedure, shortened: as §1
# [4] = biological target: GlcNAc(b1-3)Gal(b1-4)GlcNAc(b1-3)[GlcNAc(b1-3)Gal(b1-4)GlcNAc(b1-3)]GalNAc
# Procedure, shortened: as §1
# [5] = biological target: GlcNAc(b1-3)Gal(b1-4)GlcNAc(b1-6)[Gal(b1-3)]GalNAc
# Procedure, shortened: as §1
# [6] = biological target: GlcNAc(b1-3)Gal(b1-4)GlcNAc(b1-6)[GlcNAc(b1-3)Gal(b1-3)]GalNAc
# Procedure, shortened: as §1
# [7] = biological target: GlcNAc(b1-3)Gal(b1-4)GlcNAc(b1-6)[GlcNAc(b1-3)]Gal(b1-4)GlcNAc
# Procedure, shortened: as §1
# GlcNAc(b1-3)GalNAc = biological target: GlcNAc(b1-3)GalNAc
# Procedure, shortened: as §1
# GlcNAc(b1-3)Man = biological target: GlcNAc(b1-3)Man
# Procedure, shortened: as §1
# [8] = biological target: GlcNAc(b1-3)[GlcNAc(b1-4)][GlcNAc(b1-6)]GlcNAc
# Procedure, shortened: as §1
# [9] = biological target: GlcNAc(b1-3)[GlcNAc(b1-6)]Gal(b1-4)GlcNAc
# Procedure, shortened: as §1
# [10] = biological target: GlcNAc(b1-3)[GlcNAc(b1-6)]GalNAc
# Procedure, shortened: as §1
# [11] = biological target: GlcNAc(b1-4)Gal(b1-4)GlcNAc
# Procedure, shortened: as §1
# GlcNAc(b1-4)GlcNAc = biological target: GlcNAc(b1-4)GlcNAc
# Procedure, shortened: as §1
# [12] = biological target: GlcNAc(b1-4)GlcNAc(b1-4)GlcNAc
# Procedure, shortened: as §1
# [13] = biological target: GlcNAc(b1-4)GlcNAc(b1-4)GlcNAc(b1-4)GlcNAc(b1-4)GlcNAc
# Procedure, shortened: as §1
# [14] = biological target: GlcNAc(b1-4)GlcNAc(b1-4)GlcNAc(b1-4)GlcNAc(b1-4)GlcNAc(b1-4)GlcNAc
# Procedure, shortened: as §1
# [15] = biological target: GlcNAc(b1-4)[GlcNAc(b1-6)]GalNAc
# Procedure, shortened: as §1
# [16] = biological target: GlcNAc(b1-6)Gal(b1-4)GlcNAc
# Procedure, shortened: as §1
# GlcNAc(b1-6)GalNAc = biological target: GlcNAc(b1-6)GalNAc
# Procedure, shortened: as §1
# [17] = biological target: GlcNAc6S(b1-3)Gal(b1-4)GlcNAc
# Procedure, shortened: as §1
# Kdn(a2-3)Gal(b1-3)GalNAc = biological target: Kdn(a2-3)Gal(b1-3)GalNAc
# Procedure, shortened: as §1
# Kdn(a2-3)Gal(b1-3)GlcNAc = biological target: Kdn(a2-3)Gal(b1-3)GlcNAc
# Procedure, shortened: as §1
# Kdn(a2-3)Gal(b1-4)Glc = biological target: Kdn(a2-3)Gal(b1-4)Glc
# Procedure, shortened: as §1
# Kdn(a2-3)Gal(b1-4)GlcNAc = biological target: Kdn(a2-3)Gal(b1-4)GlcNAc
# Procedure, shortened: as §1
# [18] = biological target: Kdn(a2-3)Gal(b1-4)[Fuc(a1-3)]GlcNAc
# Procedure, shortened: as §1
# Kdn(a2-6)Gal(b1-4)GlcNAc = biological target: Kdn(a2-6)Gal(b1-4)GlcNAc
# Procedure, shortened: as §1
# [19] = biological target: Man(a1-2)Man(a1-2)Man(a1-3)Man
# Procedure, shortened: as §1
# [20] = biological target: Man(a1-2)Man(a1-2)Man(a1-6)[Man(a1-3)]Man
# Procedure, shortened: as §1
# Man(a1-2)Man(a1-3)Man = biological target: Man(a1-2)Man(a1-3)Man
# Procedure, shortened: as §1
# [21] = biological target: Man(a1-2)Man(a1-3)[Man(a1-2)Man(a1-6)]Man
# Procedure, shortened: as §1
# [22] = biological target: Man(a1-2)Man(a1-3)[Man(a1-2)Man(a1-6)]Man(a1-6)[Man(a1-2)Man(a1-2)Man(a1-3)]Man
# Procedure, shortened: as §1
# [23] = biological target: Man(a1-2)Man(a1-3)[Man(a1-2)Man(a1-6)]Man(a1-6)[Man(a1-2)Man(a1-2)Man(a1-3)]Man(b1-4)GlcNAc(b1-4)GlcNAc
# Procedure, shortened: as §1
# [24] = biological target: Man(a1-2)Man(a1-3)[Man(a1-6)]Man(a1-6)[Man(a1-2)Man(a1-3)]Man(b1-4)GlcNAc(b1-4)GlcNAc
# Procedure, shortened: as §1
# [25] = biological target: Man(a1-2)Man(a1-6)[Man(a1-3)]Man(a1-6)[Man(a1-2)Man(a1-2)Man(a1-3)]Man
# Procedure, shortened: as §1
# [26] = biological target: Man(a1-2)Man(a1-6)[Man(a1-3)]Man(a1-6)[Man(a1-2)Man(a1-2)Man(a1-3)]Man(b1-4)GlcNAc(b1-4)GlcNAc
# Procedure, shortened: as §1
# Man(a1-3)[Man(a1-6)]Man = biological target: Man(a1-3)[Man(a1-6)]Man
# Procedure, shortened: as §1
# [27] = biological target: Man(a1-3)[Man(a1-6)]Man(a1-6)[Man(a1-2)Man(a1-3)]Man(b1-4)GlcNAc(b1-4)GlcNAc
# Procedure, shortened: as §1
# [28] = biological target: Man(a1-3)[Man(a1-6)]Man(a1-6)[Man(a1-3)]Man
# Procedure, shortened: as §1
# [29] = biological target: Man(a1-3)[Man(a1-6)]Man(a1-6)[Man(a1-3)]Man(b1-4)GlcNAc(b1-4)GlcNAc
# Procedure, shortened: as §1
# [30] = biological target: Man(a1-3)[Man(a1-6)]Man(b1-4)GlcNAc(b1-4)GlcNAc
# Procedure, shortened: as §1
# [31] = biological target: Man(a1-3)[Man(a1-6)]Man(b1-4)GlcNAc(b1-4)[Fuc(a1-6)]GlcNAc
# Procedure, shortened: as §1
# Man(a1-6)Man = biological target: Man(a1-6)Man
# Procedure, shortened: as §1
# Man(b1-4)GlcNAc = biological target: Man(b1-4)GlcNAc
# Procedure, shortened: as §1
# MurNAc(b1-4)GlcNAc = biological target: MurNAc(b1-4)GlcNAc
# Procedure, shortened: as §1
binder,measurement,setting,value
CpGal16 (Clavelina picta) (protein) MAKMITNYVGKRIECIMVATDMMSTVFSLASATGDLPFYINFRQRENSIVMNTRVHGKWQYEKSQSSGGMNFYEPFRLVVEVRPSVFKVTVSTMGEEDGITFNLQYSQITIKPDEIVAMHLGYCNLRSELLVTDL,glycan array binding signal (z-score),[1],-0.04
same,glycan array binding signal (z-score),[2],-0.237
same,glycan array binding signal (z-score),[3],-0.398
same,glycan array binding signal (z-score),[4],-0.168
same,glycan array binding signal (z-score),[5],-0.422
same,glycan array binding signal (z-score),[6],-0.395
same,glycan array binding signal (z-score),[7],-0.446
same,glycan array binding signal (z-score),GlcNAc(b1-3)GalNAc,-0.417
same,glycan array binding signal (z-score),GlcNAc(b1-3)Man,-0.411
same,glycan array binding signal (z-score),[8],-0.373
same,glycan array binding signal (z-score),[9],-0.324
same,glycan array binding signal (z-score),[10],-0.317
same,glycan array binding signal (z-score),[11],-0.37
same,glycan array binding signal (z-score),GlcNAc(b1-4)GlcNAc,-0.371
same,glycan array binding signal (z-score),[12],-0.461
same,glycan array binding signal (z-score),[13],-0.348
same,glycan array binding signal (z-score),[14],-0.338
same,glycan array binding signal (z-score),[15],-0.406
same,glycan array binding signal (z-score),[16],-0.438
same,glycan array binding signal (z-score),GlcNAc(b1-6)GalNAc,-0.261
same,glycan array binding signal (z-score),[17],-0.325
same,glycan array binding signal (z-score),Kdn(a2-3)Gal(b1-3)GalNAc,-0.316
same,glycan array binding signal (z-score),Kdn(a2-3)Gal(b1-3)GlcNAc,-0.499
same,glycan array binding signal (z-score),Kdn(a2-3)Gal(b1-4)Glc,-0.339
same,glycan array binding signal (z-score),Kdn(a2-3)Gal(b1-4)GlcNAc,-0.4
same,glycan array binding signal (z-score),[18],-0.259
same,glycan array binding signal (z-score),Kdn(a2-6)Gal(b1-4)GlcNAc,-0.352
same,glycan array binding signal (z-score),[19],-0.382
same,glycan array binding signal (z-score),[20],-0.329
same,glycan array binding signal (z-score),Man(a1-2)Man(a1-3)Man,-0.333
same,glycan array binding signal (z-score),[21],-0.419
same,glycan array binding signal (z-score),[22],-0.232
same,glycan array binding signal (z-score),[23],-0.3
same,glycan array binding signal (z-score),[24],-0.318
same,glycan array binding signal (z-score),[25],-0.341
same,glycan array binding signal (z-score),[26],-0.331
same,glycan array binding signal (z-score),Man(a1-3)[Man(a1-6)]Man,-0.366
same,glycan array binding signal (z-score),[27],-0.328
same,glycan array binding signal (z-score),[28],-0.43
same,glycan array binding signal (z-score),[29],-0.388
same,glycan array binding signal (z-score),[30],-0.477
same,glycan array binding signal (z-score),[31],-0.308
same,glycan array binding signal (z-score),Man(a1-6)Man,-0.17
same,glycan array binding signal (z-score),Man(b1-4)GlcNAc,-0.449
same,glycan array binding signal (z-score),MurNAc(b1-4)GlcNAc,-0.34
